Consider 56 sequences from the supplement of paper PMC11417369.

± gives the standard deviation of the averaged measurements. Some of the results follow.

For this assay, the system named is PfAP2-I AP2 domain 3 (GST-tagged). Put plainly: gcPBM binding intensity (ln(normalized median fluorescence intensity)); higher = stronger DNA binding. The method, boiled down:
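GST-tagged P. falciparum DNA-binding domains produced in E. coli were incubated for 1 h on an Agilent 4 × 180k array of primer-extended double-stranded 36-bp intergenic genomic probes with negative controls. Binding intensity is the highest Masliner-normalised natural-log median intensity across replicate spots of either probe orientation, with bound protein detected by Alexa488 anti-GST antibody at 488 nm.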
Turning to “AGAGCATAATAAAACACACACATACATACAGATATA [CACACA_site4671]”, the “gcPBM binding intensity (ln)” value worked out at 7.86 ± 0.45.

As for “TATTACCCATATTATACACACATATATTATATATAT [CACACA_site1567]”, the “gcPBM binding intensity (ln)” value is 8.14 ± 0.42.

Consider “CTGTTTTACTTTAGTAGTACAATAAAAATATAAAAA [XGTACX_site2934]”, for which the “gcPBM binding intensity (ln)” value is 8.13 ± 0.27.

For “AAAAAAAAAAAACATACACACAAATATATACATACA [CACACA_site4011]”, the “gcPBM binding intensity (ln)” value was 7.62 ± 0.32.

Turning to “AAATGATGCATTTGTCATTAAAATTGTGAAATATTA [CACACA_negctrl_site231]”, the “gcPBM binding intensity (ln)” value amounted to 7.46 ± 0.6.

For the sequence “AAAAAAAAAAAAAAAAGTACATATATATATAATTAT [XGTACX_site7836]”, the “gcPBM binding intensity (ln)” value was 8.48 ± 0.48.

Take “ATAATATCTTCTTTTTTTTTTTTTTTTTTTTTTTTT [CACACA_negctrl_site1005]”: the “gcPBM binding intensity (ln)” value was determined as 9.76 ± 0.042.

For the sequence “TATAATAAAATATGTACACACATACAGACATATATA [CACACA_site6693]”, the “gcPBM binding intensity (ln)” value came out at 7.9 ± 0.2.

Take “ATATATATATAATGTGTACACACATATGTATTTATA [CACACA_site8170]”: the “gcPBM binding intensity (ln)” value is 9.03 ± 0.33.

As to “TAATTAAGATGATAAAAATTGAAAAAACAATTTTAA [CACACA_negctrl_site658]”, the “gcPBM binding intensity (ln)” value is 7.22 ± 0.53.

For the sequence “CATATAGTATAAATTTGTACATAAATATATATATAT [XGTACX_site7477]”, the “gcPBM binding intensity (ln)” value was 8.995 ± 0.064.

On to “AGAGTATATAAAGTAACACACAATAAAATAAAATAA [CACACA_site2328]”, for which the “gcPBM binding intensity (ln)” value was 7.87 ± 0.94.

As for “TACCTAATATGTTATACACACATTATAAGTACATAT [CACACA_site7206]”, the “gcPBM binding intensity (ln)” value worked out at 7.99 ± 0.38.

Regarding “AATATAACTTAGAATTGTACATAAAAAAAAATATAT [XGTACX_site3313]”, the “gcPBM binding intensity (ln)” value is 7.87 ± 0.61.

Consider “TAAGAAATAAATAGTACACACATAGACACACGCACA [CACACA_site6821]”, for which the “gcPBM binding intensity (ln)” value came out at 8.76 ± 0.085.

Turning to “ATACATAAAATTAAAACACACATTTTATTAAATACG [CACACA_site2167]”, the “gcPBM binding intensity (ln)” value was 7.64 ± 0.58.

For the sequence “GTGTGATGGTACAATATACACACTTAAAAAAAAAAA [CACACA_site8769]”, the “gcPBM binding intensity (ln)” value is 8.14 ± 0.35.

“AGTTATATGGTTAATACACACAACAAATGTTTCTTC [CACACA_site6642]”: the “gcPBM binding intensity (ln)” value came out at 7.98 ± 0.73.

As for “AAAAAATATATTTGCACACTCAAAAAAAAAAAAAAA [CACACA_site859]”, the “gcPBM binding intensity (ln)” value was found to be 10.1 ± 0.55.

For the sequence “TTCAAAAAATAAAATAATAATATATATATAAATATA [XGTACX_negctrl_site84]”, the “gcPBM binding intensity (ln)” value was 7.33 ± 0.11.

As for “TCATTAAAGGAAAAATGTACGTATAAATAAATATAT [XGTACX_site2587]”, the “gcPBM binding intensity (ln)” value is 7.85 ± 0.82.

On to “TGTGTTTATACGTTTTGTACATATTTTTATTTTGTA [XGTACX_site6425]”, for which the “gcPBM binding intensity (ln)” value stood at 7.79 ± 0.53.

Consider “TTTACATCAACCTTTTCACACATTCATATACAGATA [CACACA_site6152]”, for which the “gcPBM binding intensity (ln)” value turned out to be 7.99 ± 0.48.

Take “TTTTTTATATTTAAACTTCACATGGTTTTCATTTAT [XGTACX_negctrl_site291]”: the “gcPBM binding intensity (ln)” value came out at 7.66 ± 0.54.

As to “ATACATATATATATATGTACACATAAACATGAGTGA [XGTACX_site3200]”, the “gcPBM binding intensity (ln)” value was 7.87 ± 0.45.

Turning to “TAATGGAAACCATTTATTTTCTGCAATATATTTTTT [CACACA_negctrl_site1653]”, the “gcPBM binding intensity (ln)” value turned out to be 7.67 ± 0.35.

Take “AATGTAAAATATAAATGTACATATATATATATATAT [XGTACX_site5071]”: the “gcPBM binding intensity (ln)” value is 9.38 ± 0.52.

As for “ATTTATTTATACAAAGTGCAATATTTTGTTAAAGTC [GTGCAC_site9618]”, the “gcPBM binding intensity (ln)” value worked out at 10.6 ± 0.48.

In the case of “AAACAAAATATGGTTCATGAGCAAAAGTTTATTTTG [XGTACX_negctrl_site531]”, the “gcPBM binding intensity (ln)” value is 7.58 ± 0.78.

For “CTCTTTTCTTATAATACACACAGTAATATATATATA [CACACA_site1520]”, the “gcPBM binding intensity (ln)” value worked out at 8.9 ± 0.014.

Consider “ATATGAAATATATAAATATGTTTATATATATATATA [GTGCAC_negctrl_site94]”, for which the “gcPBM binding intensity (ln)” value is 9.09 ± 0.7.

As to “TATAAAATACATTTATAATATATATATATATTTTTT [TGCATGCA_negctrl_site435]”, the “gcPBM binding intensity (ln)” value is 7.36 ± 0.38.

As for “GTAATTTTAAAGAAAAGTACACATTTATTAATTATT [XGTACX_site4468]”, the “gcPBM binding intensity (ln)” value was 7.63 ± 0.47.

With ACATATAAATATTGTGTGCACACACATAATATATAT, the “gcPBM binding intensity (ln)” value was found to be 10.2 ± 0.18.

On to “GTGTTAAATGTTTACACACAAACTTGCAATAATTAT [CACACA_site3825]”, for which the “gcPBM binding intensity (ln)” value is 8.09 ± 0.71.

“AAAAATTATAACTAAAAAAATCACACAAAATATTTT [TGCATGCA_negctrl_site28]”: the “gcPBM binding intensity (ln)” value was found to be 7.55 ± 0.86.

With “TTGCATTTATTATACACACACAAAAAAATATATATA [CACACA_site238]”, the “gcPBM binding intensity (ln)” value amounted to 8.38 ± 0.38.

Consider “TATGTATTTAAGTTACCTGAACGTTCAGGTAAAATT [CACACA_negctrl_site1393]”, for which the “gcPBM binding intensity (ln)” value amounted to 7.7 ± 0.71.

Turning to “TTTATTCTCAAACACACACACATATATATATATATA [CACACA_site2895]”, the “gcPBM binding intensity (ln)” value was determined as 9.28 ± 0.16.

With “TAATTAATAATAATATGTACATATTAATATATTATT [XGTACX_site6900]”, the “gcPBM binding intensity (ln)” value came to 7.63 ± 0.33.

For “TTTTATATATATATCACACACACACCCATGTTTTAA [CACACA_site79]”, the “gcPBM binding intensity (ln)” value came out at 8.07 ± 0.61.

With “TGATAAAGTAAATATACATGCGATTAGTTATATATA [TGCATGCA_site720]”, the “gcPBM binding intensity (ln)” value stood at 7.74 ± 0.26.

In the case of “TTGATAATTATATAATGTACTCATTATAATATGATG [XGTACX_site7813]”, the “gcPBM binding intensity (ln)” value was determined as 7.8 ± 0.24.

For the sequence “TATAAAAAAAAAAAAAGTACTAACTTAAAACAATTT [XGTACX_site7969]”, the “gcPBM binding intensity (ln)” value is 7.56 ± 0.67.

On to “AGTTTGTCAATCAACACACACCTATTTATTATAGAT [CACACA_site7777]”, for which the “gcPBM binding intensity (ln)” value was determined as 7.61 ± 0.62.

As to “TATTTATTCTCCAACACACACACATATATTTATATA [CACACA_site7376]”, the “gcPBM binding intensity (ln)” value worked out at 7.93 ± 0.43.

Regarding “AAAAATGAGTGACACACACACATATAAATATAAATA [CACACA_site7115]”, the “gcPBM binding intensity (ln)” value is 7.62 ± 0.33.

On to “AAATCAAACTTTGGTGTGCACAAATATATACATATA [GTGCAC_site9986]”, for which the “gcPBM binding intensity (ln)” value worked out at 10.545 ± 0.007.

As for “TTTTTTTTACATTCTGCACACAATTTATTTTTTTTT [CACACA_site36]”, the “gcPBM binding intensity (ln)” value stood at 9.19 ± 0.52.

As to “TTATATGTTTTACAACGTACACAAAAAAAACTTATA [XGTACX_site4413]”, the “gcPBM binding intensity (ln)” value was determined as 7.83 ± 0.23.

In the case of “CATTTTTACCGGTACTGTACATAAAAAAAAAAAAAG [XGTACX_site1548]”, the “gcPBM binding intensity (ln)” value worked out at 8.23 ± 0.43.

Regarding “TAAAAAAAAAGAAGGGGTACATGGATAATATATAAA [XGTACX_site8386]”, the “gcPBM binding intensity (ln)” value was 7.94 ± 0.61.

In the case of “GCAGGCTAAAAAATTACACACGAAAAAAATGAATTT [CACACA_site3417]”, the “gcPBM binding intensity (ln)” value came out at 7.62 ± 0.69.

Turning to “CATATATGGTTATATACATGCACCATTATATTATTA [TGCATGCA_site520]”, the “gcPBM binding intensity (ln)” value turned out to be 9.1 ± 0.2.

In the case of “TATATAATATTTTTCACACACCATTTCCTTAAACAC [CACACA_site4862]”, the “gcPBM binding intensity (ln)” value was 8.265 ± 0.078.

“TGTATAACCTGTGTTACACACATTATGATTTATATA [CACACA_site525]”: the “gcPBM binding intensity (ln)” value is 7.76 ± 0.45.
